Reference: PMC7925099, “Identification of an Antiretroviral Small Molecule That Appears To Be a Host-Targeting Inhibitor of HIV-1 Assembly” (Journal of Virology, 2021)

Tested on: HIV-1 NL4-3 RLuc Δenv virus pseudotyped with NL4-3 Env
Assay: Inhibition of HIV-1 early events (single-round infection)
Settings: Human immunodeficiency virus 1, NL43, MT2, 48 h, read-out: EC50 for inhibition of HIV-1 early events

Q: With `COc1cc(C)c(/C=C/C2NCCc3cc(OCc4ccccc4)c(OC)cc32)cc1OCc1ccccc1` (stereo not shown) [PAV-117] as the compound, how does the EC50 read?
A: Its EC50 is 930 nM.
